Reference: PubChem BioAssay AID1347071 (National Center for Advancing Translational Sciences (NCATS), 2019)
About 260 (0.063%) of roughly 410,000 compounds were called active. The inconclusive results got no clear call from the source; some entries with a clear call stand among them for comparison. The call rests on the fitted dose curve; in most records, active means well fitted activation curve with a large enough effect; inconclusive means small, poorly fitted or top-dose-only effect; inactive means no such curve, though single readings can be large or run the other way. No potency is given beside an inconclusive call; the fits are too rough.
Potency means the concentration at half of the fitted maximal effect; tags describe the fitted curve by direction and shape.

Experiment: qHTS for compounds that reverse cellular toxicity of Amyloid beta (A-beta) peptide in yeast: Primary Screen; further: nearly all actives have a fitted effect of over 55% in size
Details: yeast expressing A-beta42, growth rescue, OD600, 48 h; growth rescue: at 46.1 µM (top of the series), 0% DMSO, 100% iron-clioquinol control
Procedure, shortened: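 Yeast A-beta toxicity model in growth medium with pinned compounds, 48 h at 30 C; growth read as absorbance at 600 nm. Normalized to FeCl3/clioquinol equimolar mix (positive) and DMSO (negative).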
In the case of `COc1cc(C2C(=O)N(C3CCCCCC3)CC(=O)N2CCc2ccccc2)ccc1OC(C)C` (stereo not drawn), the “growth rescue” value was inactive: -6.43%.
In the case of `S=C(NCC1COc2ccccc2O1)Nc1ccccc1` (stereo not drawn), the Potency was inconclusive [activator, single point].
In the case of `Cc1cc2cc(CNC(=S)NCc3ccccc3)ccc2n1C`, the Potency was inconclusive [activator, single point].
For `O=C(Nc1cccc(-c2cc3ccccc3oc2=O)c1)c1ccc(Br)o1`, the “growth rescue” value was inactive: -5.03%.
In the case of `CC(C)(C)NC(=S)N/N=C/c1cccnc1`, the Potency was inconclusive [activator, single point].
With `CCCCNC(=S)N/N=C/C1=CCC2CC1C2(C)C` (stereo not drawn) the Potency was inconclusive [activator, single point].
For `O=C(NCC(=O)N(Cc1ccco1)C(C(=O)NC1CCCCC1)c1cccnc1)c1ccco1` (stereo not drawn), the Potency was inconclusive [activator, partial curve, poor fit].
With `N#CCCN1CCN(C(=S)c2ccc(-c3cc(Cl)ccc3Cl)o2)CC1` the Potency was inconclusive [activator, partial curve, poor fit].
With `COc1ccccc1CNC(=O)N1CCN(c2ccccc2Cl)CC1` the Potency was inconclusive [activator, single point].
With `CN(Cc1cc(Cl)cc(Cl)c1)CC(C(=O)c1ccccc1)c1ccccc1` (stereo not drawn) the “growth rescue” value was inactive: -4.02%.
In the case of `Cc1cccc(C(=O)OCC(=O)N2CCCCCC2)c1O`, the Potency was inconclusive [activator, single point].
For `COc1ccc(-c2cn3c(C)c(C(=O)N4CCN(c5ccccc5F)CC4)sc3n2)cc1`, the “growth rescue” value was inactive: -1.4%.
With `CCNC(=O)Cc1ccc(NC(=O)N2CCCCc3ccccc32)cc1` the “growth rescue” value was inactive: -5.76%.
In the case of `CSc1nsc2nc(=O)c(/C=C3\C(C)=Nc4ccc(C)cc43)c(N)n12`, the “growth rescue” value was inactive: -3.84%.
In the case of `COc1ccc(OC)c(NC(=O)c2cnc(Nc3ccccc3OC)c3ccccc23)c1`, the Potency was inconclusive [activator, single point].
In the case of `O=C(c1ccc(OCCN2CCCCC2)cc1)c1c(-c2ccc(O)cc2)sc2cc(O)ccc12`, the Potency was “inactive”.
For `Cc1nn(CCOc2cccc(Cl)c2)c(C)c1[N+](=O)[O-]`, the Potency was inconclusive [activator, partial curve, poor fit].
For `Cc1ccc(C(=O)NNC(=S)NC(=O)c2ccc(Cl)cc2)cc1`, the Potency was inconclusive [activator, full curve].
In the case of `Cc1ccc(NCc2nc3ccccc3n2CCOc2ccccc2)cc1`, the Potency was inconclusive [activator, single point].
For `Cc1cc(NC(=O)Nc2nc3c(s2)CCCCCC3)ccc1Br`, the “growth rescue” value was inactive: -14.4%.
In the case of `Cc1ccc(CNC(=O)CCS(=O)(=O)c2cc(Br)cc3c2N(C(=O)C2CC2)CC3)cc1`, the “growth rescue” value was inactive: -2.97%.
For `CCOC(=O)c1sc2nc(-c3ccco3)c3c(c2c1N)CC(C)(C)OC3`, the Potency was inconclusive [activator, partial curve, poor fit].
In the case of `Cc1ccsc1/C=N/NC(=S)NCCc1ccccc1`, the Potency was inconclusive [activator, single point].
In the case of `CC(C)N(C)c1ncnc2c1ncn2[C@H]1CN(Cc2ccccc2)C[C@@H](CO)O1`, the “growth rescue” value was inactive: -0.962%.
For `CCS(=O)(=O)c1ncc(Cl)c(C(=O)Nc2ccccc2)n1`, the “growth rescue” value was inactive: -52.3%.
For `Cc1ccc(N=C2NC(=O)CC(C(=O)Nc3cc(C(F)(F)F)ccc3Cl)S2)cc1` (stereo not drawn), the “growth rescue” value was inactive: -1.98%.
For `O=C(NC1CCN(C(=O)Nc2ccccc2Cl)CC1)c1cccc(F)c1`, the “growth rescue” value was inactive: -1.03%.
In the case of `CCOC(=O)CC(NS(=O)(=O)Cc1ccccc1)c1ccc(C)cc1` (stereo not drawn), the Potency was inconclusive [activator, partial curve, poor fit].
For `CC(=O)c1ccccc1NC(=O)COC(=O)c1c(C)nn(-c2ccccc2)c1C`, the “growth rescue” value was inactive: 5.56%.
With `CC(NC(=S)Nc1cccc(C(F)(F)F)c1)C(C)(C)C` (stereo not drawn) the Potency was active: 12.6 µM.
For `Cc1ccccc1NC(=O)c1ccc(-c2ccc(Cl)cc2Cl)o1`, the Potency was inconclusive [activator, partial curve, poor fit].
For `COc1ccc(-c2nc(Cn3c(SCc4cccc(C(F)(F)F)c4)nc4cccnc43)c(C)o2)cc1OC`, the Potency was inconclusive [activator, single point].
With `Cc1cccc(Cn2cc(C(=O)Nc3cc(F)ccc3F)ccc2=O)c1` the Potency was inconclusive [activator, single point].
With `Cc1ccccc1NC(=O)N1C2CCC1CC(O)(c1cccnc1)C2` (stereo not drawn) the “growth rescue” value was inactive: 0.552%.
With `Cc1ccc(C2(c3noc(CN(C)Cc4cccnc4)n3)CCCC2)cc1` the “growth rescue” value was inactive: 2.02%.
With `Cc1ccc(Cl)cc1-c1cc(C(=O)N2CCc3ccccc3C2)[nH]n1` the Potency was inconclusive [activator, single point].
With `O=c1c2sc3nc(N4CCOCC4)c4c(c3c2ncn1CCc1ccccc1)CCCC4` the Potency was inconclusive [activator, single point].
In the case of `CNC(=S)NCCCc1ccccc1`, the Potency was inconclusive [activator, single point].
With `CC(C)Nc1nc(Cl)nc(NCCOc2ccccc2)n1` the Potency was inconclusive [activator, partial curve, poor fit].
For `Cc1cccc(CN2C(=O)[C@H]3Cc4c([nH]c5ccccc45)C(C)(C)N3C2=O)c1`, the Potency was inconclusive [activator, single point].
With `C/C(=N\NC(=O)c1ccc(Cl)cc1)c1ccccn1` the Potency was inconclusive [activator, single point].
For `COc1cc(CNc2nc(C)c([N+](=O)[O-])c(C)c2C#N)cc(OC)c1OC`, the Potency was inconclusive [activator, full curve, poor fit].
With `Cc1cccc(NNC(=S)Nc2c(C)cccc2C)c1` the Potency was active: 7.08 µM.
With `Cc1ccc(Cl)cc1N1CCN(c2ncnc3c2nc2n3CCCCC2)CC1` the “growth rescue” value was inactive: 2.68%.
With `O=[N+]([O-])c1ccc(NC(=S)N2CCc3ccccc32)cc1` the Potency was inconclusive [activator, single point].
In the case of `N#Cc1c(Nc2ccccc2C(F)(F)F)s[nH]c1=O`, the Potency was inconclusive [activator, partial curve].
With `CSc1nnc(-c2cccs2)n1C` the “growth rescue” value was inactive: -7.3%.
With `O=C(CCCOc1ccc(Cl)cc1Cl)N/N=C/c1ccccc1O` the Potency was inconclusive [activator, full curve, poor fit].
For `O=C(NCc1ccco1)c1ccc2c(c1)N(Cc1c(F)cccc1Cl)C(=O)c1ccccc1S2`, the “growth rescue” value was inactive: 4.87%.
For `CC(C)c1ccc(NC(=O)CN2C(=O)NC3(CCCC3)C2=O)cc1`, the “growth rescue” value was inactive: 6.64%.
For `O=C(Nc1cccc2ccccc12)c1ccco1`, the “growth rescue” value was inactive: -3.01%.
In the case of `COc1cccc(NS(=O)(=O)CC23CCC(CC2=O)C3(C)C)c1` (stereo not drawn), the Potency was inconclusive [activator, partial curve, poor fit].
With `COc1ccc(C(=O)CCNc2ccc3c(c2)OCCO3)cc1` the Potency was inconclusive [activator, partial curve, poor fit].
With `Cc1c(C(=O)N2CCC(C)CC2)c(S(=O)(=O)Nc2cccc(C(F)(F)F)c2)c(C)n1C` the “growth rescue” value was inactive: -6.81%.
In the case of `S=C(Nc1ccccc1Oc1ccccc1)NC1CCCC1`, the Potency was inconclusive [activator, partial curve].
In the case of `COc1ccc(CC(=O)NNC(=O)CCC(=O)Nc2cc(C)ccc2C)cc1`, the “growth rescue” value was inactive: 1.73%.
For `COc1cc(S(=O)(=O)N2CCCCC2)c(OC)cc1Br`, the Potency was inconclusive [activator, partial curve, poor fit].
With `COc1cc(C(O)c2nc(-c3cc(F)cc(F)c3)cs2)ccc1F` (stereo not drawn) the Potency was inconclusive [activator, single point].
For `CC(=O)C(C(c1ccccc1)N1CCCc2ccccc21)N1CCOCC1` (stereo not drawn), the growth rescue was inconclusive: 30.2% [activator].
For `COc1ccc(CNc2nc3ccccc3s2)cc1OC`, the Potency was inconclusive [activator, single point].
With `CC(C)(C)c1nnc(NC(=O)Cc2ccc(Br)cc2)s1` the Potency was inconclusive [activator, full curve].
For `O=C1c2ccccc2NC(c2ccc(-c3cccc([N+](=O)[O-])c3)o2)N1O` (stereo not drawn), the Potency was inconclusive [activator, single point].
With `CCCn1c(=S)[nH]c2cc(Cl)ccc21` the Potency was inconclusive [activator, partial curve, poor fit].
In the case of `COc1cc(C(=O)NNC(=S)NC(=O)c2ccc(F)cc2)cc(OC)c1OC`, the Potency was inconclusive [activator, full curve].
With `Cc1c(C)n(Cc2ccccc2)c2ncnc(NN)c12` the Potency was inconclusive [activator, single point].
In the case of `COc1ccc(NS(=O)(=O)c2c(C)nc3scc(C)n3c2=O)cc1`, the Potency was inconclusive [activator, single point].
For `COc1cccc(NC(=O)CSC2=Nc3ccccc3C3=NC(CC(=O)NCc4ccccc4OC)C(=O)N23)c1` (stereo not drawn), the “growth rescue” value was inactive: -5.56%.
With `COc1c(C)cc(S(=O)(=O)NCCN2CCOCC2)c(C)c1C` the Potency was inconclusive [activator, full curve].
For `Cc1ccc(S(=O)(=O)N/N=C\c2ccc(Cl)c([N+](=O)[O-])c2)cc1`, the “growth rescue” value was inactive: 3.9%.
For `O=C(NCc1ccccc1)c1ccc2c(c1)N(Cc1ccc(F)cc1)CCS2`, the “growth rescue” value was inactive: -10.4%.
For `Cn1c(CSCc2ccc(Cl)c(Cl)c2)n[nH]c1=S`, the Potency was inconclusive [activator, single point].
With `O=C(/C=C/c1cccc(Cl)c1)Nn1c(-c2cccs2)nc2ccccc2c1=O` the “growth rescue” value was inactive: 3.28%.
With `CN1/C(=C\C(=O)CN2C(=O)NC3(CCCCCC3)C2=O)C(C)(C)c2ccccc21` the Potency was inconclusive [activator, single point].
